The values that follow come from publication PMC4336329 (PLoS ONE, 2015).

Molecules are shown by their SMILES. Hit rate of the full screen: of about 310,000 compounds, about 14,000 (4.5%) showed an effect of 50% or more. The effect is printed as a negative number. The list shows a part of the results.
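Note: peak tail current of the secondary pulse compared with the same well before compound.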

human ether-à-go-go-related gene (hERG) potassium channel, sequence (Q12809 whole entry, looked up): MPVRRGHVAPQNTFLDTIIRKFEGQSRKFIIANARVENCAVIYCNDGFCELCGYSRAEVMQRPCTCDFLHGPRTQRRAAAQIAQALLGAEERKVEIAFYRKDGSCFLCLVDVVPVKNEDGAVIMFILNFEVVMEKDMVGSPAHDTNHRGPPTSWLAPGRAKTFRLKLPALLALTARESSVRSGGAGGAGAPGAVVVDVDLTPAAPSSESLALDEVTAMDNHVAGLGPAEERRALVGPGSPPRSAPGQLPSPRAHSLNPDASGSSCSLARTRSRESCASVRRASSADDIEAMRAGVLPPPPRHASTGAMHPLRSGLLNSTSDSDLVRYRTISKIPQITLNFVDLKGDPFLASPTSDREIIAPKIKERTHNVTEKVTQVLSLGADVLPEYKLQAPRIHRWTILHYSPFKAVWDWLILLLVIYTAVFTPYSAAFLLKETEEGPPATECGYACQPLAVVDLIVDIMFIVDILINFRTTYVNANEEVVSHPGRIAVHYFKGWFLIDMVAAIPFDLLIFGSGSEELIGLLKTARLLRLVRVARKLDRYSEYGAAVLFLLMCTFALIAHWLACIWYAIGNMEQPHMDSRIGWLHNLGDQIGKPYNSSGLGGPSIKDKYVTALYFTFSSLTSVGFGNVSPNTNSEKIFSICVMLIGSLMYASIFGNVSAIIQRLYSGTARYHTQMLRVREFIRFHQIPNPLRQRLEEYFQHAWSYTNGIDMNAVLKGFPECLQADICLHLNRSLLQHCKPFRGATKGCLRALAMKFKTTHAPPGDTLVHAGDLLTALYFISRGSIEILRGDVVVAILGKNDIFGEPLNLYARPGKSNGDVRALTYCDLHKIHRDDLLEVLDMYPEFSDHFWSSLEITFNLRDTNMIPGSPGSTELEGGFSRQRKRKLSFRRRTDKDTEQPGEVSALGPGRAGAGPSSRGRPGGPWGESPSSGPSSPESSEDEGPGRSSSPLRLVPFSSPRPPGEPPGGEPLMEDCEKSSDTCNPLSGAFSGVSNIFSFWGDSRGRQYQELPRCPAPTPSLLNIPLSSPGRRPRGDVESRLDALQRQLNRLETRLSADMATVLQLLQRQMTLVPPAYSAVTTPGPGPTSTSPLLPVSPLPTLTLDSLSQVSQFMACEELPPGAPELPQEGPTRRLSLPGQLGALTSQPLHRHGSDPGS

This experiment has as its target human ether-à-go-go-related gene (hERG) potassium channel (human, UniProt Q12809). Description: primary screen, population patch clamp on CHO cells stably expressing hERG.
`CCCc1cc(=O)[nH]c(SCC(=O)c2cc(C)n(CCC)c2C)n1`: the “hERG current change (%, negative = inhibition) at 10uM” value came to 7.5%.

For `COC(=O)NNC(=O)c1cccc(C)c1`, the “hERG current change (%, negative = inhibition) at 10uM” value is -1.42%.

For the compound `Cc1ccc2[nH]c(=O)c3cc(C(=O)NC(C)C)sc3c2c1`, the “hERG current change (%, negative = inhibition) at 10uM” value is 9.76%. For `CCCCCCCCCCCCCCCC(=O)OC(CC(=O)O)C[N+](C)(C)C.[Cl-]` (stereo not drawn), the “hERG current change (%, negative = inhibition) at 10uM” value was -14%. Turning to `O=C(CCOc1ccccc1)Nc1ccccc1`, the “hERG current change (%, negative = inhibition) at 10uM” value was 12.1%. The figure for `NC(=O)NC(=O)COC(=O)/C=C/c1cccc(Br)c1` is 8%; for `O=CN1CCN(C(=O)CN2C(=O)c3ccccc3C2=O)CC1` it is 10.5%; for `O=C(O)c1cccc(N2C(=O)C3C4C=CC(C4=C(c4ccccc4)c4ccccc4)C3C2=O)c1` (stereo not drawn) it is 34.7%. Turning to `CCO[C@H]1OC(C(=O)NCc2ccccc2)=C[C@@H](c2coc3ccccc3c2=O)[C@@H]1CCCO`, the “hERG current change (%, negative = inhibition) at 10uM” value was -38.5%. The figure for `CCOc1ccc(NC(=O)N2CCN(S(C)(=O)=O)CC2)cc1` is -2.92%; for `CNC(=O)c1cc(C(=O)c2c(Cl)cccc2Cl)c[nH]1` it is -5.5%. `NC1=NC[C@H](Cc2ccc(O)cc2)N1CCC12CC3CC(CC(C3)C1)C2`: the “hERG current change (%, negative = inhibition) at 10uM” value is on record as -3.6%.

In the case of `O=c1c(Cc2ccc(Cl)cc2Cl)c(O)ccn1Cc1ccc(Cl)cc1`, the “hERG current change (%, negative = inhibition) at 10uM” value is -4.83%. Under `O=C(CSc1ccc2nnc(-c3ccccn3)n2n1)Nc1ccc2c(c1)OCCO2` stands -40.6%; under `CCOc1ccc(N/C(C)=C/C(=O)c2ccc(C)o2)cc1`, -42.7%; under `O=C(CN1C(=O)c2ccccc2S1(=O)=O)Nc1ncccn1`, 5.59%. In the case of `CC(Cc1ccsc1)NCc1cn[nH]c1-c1ccc(F)cc1F` (stereo not drawn), the “hERG current change (%, negative = inhibition) at 10uM” value is listed as -66.3%.

`COc1cc(S(=O)(=O)NCc2ccncc2)c(OC)cc1C`: the “hERG current change (%, negative = inhibition) at 10uM” value is recorded as -4.37%.

With `COC(=O)c1ccc(-c2noc(CN(Cc3nccn3C)C(C)C)n2)cc1`, the “hERG current change (%, negative = inhibition) at 10uM” value is -37%. Under `Cc1sc2nc(SCC(=O)NCc3ccco3)[nH]c(=O)c2c1C` stands 10.5%. Under `COc1cc(/C=C2\OC(=O)c3c(OC)cccc32)ccc1O` stands 15.6%.

As to `Cc1nn(C)cc1S(=O)(=O)Nc1ccc(C(F)(F)F)cc1`, the “hERG current change (%, negative = inhibition) at 10uM” value is listed as 10.1%. The figure for `Cc1[nH][nH]c(=O)c1C(c1ccc(F)cc1)c1c(C)[nH][nH]c1=O` is 13.2%. Under `COC(=O)CSc1ncnc2c1cnn2Cc1ccccc1` stands 0.137%; under `Cc1cc(C2CCCCC2)n(O)c(=O)c1.NCCO`, 7.99%; under `S=C(Nc1ccccc1)N1N=C(c2cccs2)CC1c1cccs1` (stereo not drawn), 25.4%. Under `O=C(NC1CCN(S(=O)(=O)c2ccc(Cl)cc2)CC1)c1cccnc1` stands 0.584%. Turning to `CCOc1ccc(NC(=O)CN(c2ccc([N+](=O)[O-])cc2)S(=O)(=O)c2ccccc2)cc1`, the “hERG current change (%, negative = inhibition) at 10uM” value is listed as 0.773%. Under `Cn1c(CCN2CCN(c3ccccn3)CC2)nc2cc(NS(=O)(=O)c3ccc(Cl)cc3)ccc21` stands -84.3%; under `COc1ccc(CCNC(=O)COC(=O)/C=C/c2ccc(OCC#N)c(OC)c2)cc1OC`, -17.1%. The figure for `O=C(NCc1cccnc1)C12CC3CC(CC(C3)C1)C2` is -2.26%; for `O=C1NC(c2ccncc2)Nc2sc3c(c21)CCCC3` (stereo not drawn) it is 6.31%; for `CCc1ccc(NC(=O)c2cccc(C(=O)Nc3ccc(CC)cc3)n2)cc1` it is 5.34%. Under `Cc1nnc(SCC(=O)c2cc(C)n(-c3c(C)n(C)n(-c4ccccc4)c3=O)c2C)s1` stands 1.03%; under `Cc1cc(NC(=O)Cn2nnc(-c3ccccc3N)n2)no1`, 11.8%. In the case of `CCCC(C(=O)O)N1C(=O)/C(=C/c2cccn2C)SC1=S` (stereo not drawn), the “hERG current change (%, negative = inhibition) at 10uM” value was 24.8%.

Consider `Cc1ccc(NC(=O)Cc2nc(CSc3nnc(-c4ccc5c(c4)OCO5)o3)cs2)cc1`, for which the “hERG current change (%, negative = inhibition) at 10uM” value was -6.08%. As to `CC1Cc2ccccc2N1NC(=O)c1ccc(Cl)c(S(N)(=O)=O)c1` (stereo not drawn), the “hERG current change (%, negative = inhibition) at 10uM” value amounted to 8.16%.

As to `CCOc1ccc2[nH]cc(C(=O)NCc3ccc(F)cc3)c(=O)c2c1`, the “hERG current change (%, negative = inhibition) at 10uM” value was determined as 16.8%. Under `CC(=O)c1c(C)n(CCO)c2ccc(O)cc12` stands -6.47%; under `O=C(COC(=O)c1cccc2ccccc12)Nc1cccnc1Cl`, 0.703%; under `CC1(C(=O)NC2CCCCC2)CCC(=O)N1Cc1cccs1` (stereo not drawn), -0.227%.

As for `NS(=O)(=O)c1ccc(Cc2ncc(C(F)(F)F)cc2Cl)s1`, the “hERG current change (%, negative = inhibition) at 10uM” value is reported as 11.2%. Consider `CCOC(=O)C1(CC)CC(CSc2nc3ccccc3[nH]2)OC1=O.Cl` (stereo not drawn), for which the “hERG current change (%, negative = inhibition) at 10uM” value was -2.61%. The figure for `COc1cccc(CN2CCN(Cc3ccc4c(c3)OCCO4)CC2CCO)c1` (stereo not drawn) is -7.1%.
